{
  "source": "paper PMC4336329",
  "about": "(PLoS ONE, 2015)",
  "note": "Out of some 310,000 compounds screened, about 14,000 (4.5%) showed an effect of 50% or more. Effects have a minus sign here. The list shows a part of the results.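 Note: peak tail current of the secondary pulse compared with the same well before compound.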",
  "data": [
    {"target": "human ether-à-go-go-related gene (hERG) potassium channel (human, UniProt Q12809)", "sequence (Q12809 whole entry, looked up)": "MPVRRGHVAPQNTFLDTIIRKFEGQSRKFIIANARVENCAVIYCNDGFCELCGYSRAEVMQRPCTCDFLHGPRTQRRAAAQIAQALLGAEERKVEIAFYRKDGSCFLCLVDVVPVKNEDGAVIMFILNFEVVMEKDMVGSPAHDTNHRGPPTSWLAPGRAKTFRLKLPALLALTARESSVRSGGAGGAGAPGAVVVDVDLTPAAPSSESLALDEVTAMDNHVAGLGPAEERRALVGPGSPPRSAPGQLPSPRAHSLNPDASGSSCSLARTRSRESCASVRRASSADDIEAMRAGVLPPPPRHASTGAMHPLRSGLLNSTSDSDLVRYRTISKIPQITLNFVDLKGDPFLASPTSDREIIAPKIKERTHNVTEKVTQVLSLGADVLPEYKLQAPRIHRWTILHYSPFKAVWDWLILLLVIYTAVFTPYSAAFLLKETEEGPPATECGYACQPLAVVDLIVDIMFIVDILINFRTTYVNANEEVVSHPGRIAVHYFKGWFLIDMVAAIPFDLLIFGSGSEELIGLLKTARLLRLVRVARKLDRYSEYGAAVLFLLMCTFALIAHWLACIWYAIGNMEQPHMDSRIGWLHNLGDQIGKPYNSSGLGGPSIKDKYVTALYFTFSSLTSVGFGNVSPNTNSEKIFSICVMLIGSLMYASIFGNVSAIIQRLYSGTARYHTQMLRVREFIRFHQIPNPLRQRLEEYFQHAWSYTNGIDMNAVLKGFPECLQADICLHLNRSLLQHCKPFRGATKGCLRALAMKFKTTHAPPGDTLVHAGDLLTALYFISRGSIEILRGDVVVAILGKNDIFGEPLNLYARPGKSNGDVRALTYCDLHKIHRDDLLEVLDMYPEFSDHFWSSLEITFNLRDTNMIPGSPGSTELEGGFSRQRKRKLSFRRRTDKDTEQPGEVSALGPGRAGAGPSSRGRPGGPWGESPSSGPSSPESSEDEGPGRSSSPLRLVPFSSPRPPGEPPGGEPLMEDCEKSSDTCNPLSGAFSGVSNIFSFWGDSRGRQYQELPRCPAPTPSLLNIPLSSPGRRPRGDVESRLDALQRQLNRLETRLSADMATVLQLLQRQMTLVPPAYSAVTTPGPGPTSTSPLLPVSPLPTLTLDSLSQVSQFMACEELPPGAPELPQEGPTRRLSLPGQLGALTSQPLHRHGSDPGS", "experiment": "primary screen, population patch clamp on CHO cells stably expressing hERG", "units": {"hERG current change (%, negative = inhibition) at 10uM": "%"}, "values": [
      {"smiles": "COc1cc(NC(=S)N2CCCC(CO)C2)c(OC)cc1Cl", "note": "(stereo not drawn)", "hERG current change (%, negative = inhibition) at 10uM": 8.9},
      {"smiles": "Cc1nnc(SCc2ccccc2F)n1NCc1cccs1", "hERG current change (%, negative = inhibition) at 10uM": -18.2},
      {"smiles": "O=C(O/N=C1\\CCS(=O)(=O)c2sccc21)c1ccccc1", "hERG current change (%, negative = inhibition) at 10uM": 11.6},
      {"smiles": "CCOc1ccccc1-n1c(C)cc(C=O)c1C", "hERG current change (%, negative = inhibition) at 10uM": 11.1},
      {"smiles": "COc1cc2c(cc1OC)C(=S)NC1(CCCC1)C2", "hERG current change (%, negative = inhibition) at 10uM": 9.36},
      {"smiles": "Fc1ccc(CN2CCN3CCCC3C2C2CCCCC2)cc1F", "note": "(stereo not drawn)", "hERG current change (%, negative = inhibition) at 10uM": -22.1},
      {"smiles": "Oc1ccc(C2Nc3cccc4cccc(c34)N2)c(O)c1", "hERG current change (%, negative = inhibition) at 10uM": 14.9},
      {"smiles": "COC(=O)c1cccc(NC(=O)CN2CCc3ccccc3C2)c1", "hERG current change (%, negative = inhibition) at 10uM": 9.38},
      {"smiles": "CCCn1c2ccccc2c2nnc(SC(CC)C(=O)Nc3cc(C)on3)nc21", "note": "(stereo not drawn)", "hERG current change (%, negative = inhibition) at 10uM": 6.83},
      {"smiles": "CCOc1ccc(C(=O)CN2C(=O)NC3(CCCCCC3)C2=O)cc1", "hERG current change (%, negative = inhibition) at 10uM": 1.58},
      {"smiles": "NC(=O)c1ccc(NC(=O)CSc2nnc(-c3ccc4c(c3)OCO4)o2)cc1", "hERG current change (%, negative = inhibition) at 10uM": 2.05},
      {"smiles": "O=C(c1cccc(-c2ccc(O)cc2)c1)N1CCN(c2ccc(F)cc2)CC1", "hERG current change (%, negative = inhibition) at 10uM": 23.3},
      {"smiles": "COc1ccccc1NC(=O)N1CCN(c2ccccc2F)CC1", "hERG current change (%, negative = inhibition) at 10uM": 10.7},
      {"smiles": "COc1ccccc1N1CCN(Cc2ccc(Cl)cc2Cl)CC1", "hERG current change (%, negative = inhibition) at 10uM": -12.7},
      {"smiles": "COc1ccc(NC(=O)COC(=O)Cc2ccccc2[N+](=O)[O-])cc1OC", "hERG current change (%, negative = inhibition) at 10uM": 29.3},
      {"smiles": "COc1ccc(OC(C)C(=O)Nc2cccc(OC)c2)cc1", "note": "(stereo not drawn)", "hERG current change (%, negative = inhibition) at 10uM": -0.0503},
      {"smiles": "O=C(CSc1nc2ccccc2o1)Nc1nc(-c2ccccc2)c(-c2ccccc2)s1", "hERG current change (%, negative = inhibition) at 10uM": 14.7},
      {"smiles": "COCCNC(=S)N/N=C/c1ccc([N+](=O)[O-])cc1", "hERG current change (%, negative = inhibition) at 10uM": 12.4},
      {"smiles": "CCOC(=O)c1c(NC(=O)Cn2nnc(-c3ccc(Cl)cc3)n2)sc(C)c1C", "hERG current change (%, negative = inhibition) at 10uM": 6.97},
      {"smiles": "Cc1[nH]n(-c2ccccc2)c(=O)c1C(c1ccc([N+](=O)[O-])cc1)c1c(C)[nH]n(-c2ccccc2)c1=O", "hERG current change (%, negative = inhibition) at 10uM": 15.3},
      {"smiles": "COc1ccc(/C=N/N(Cc2ccccc2)c2ccccc2)cc1O", "hERG current change (%, negative = inhibition) at 10uM": 11.7},
      {"smiles": "Cc1ccc(C(=O)N2CCN(c3ccccc3)CC2)cc1C", "hERG current change (%, negative = inhibition) at 10uM": 4.41},
      {"smiles": "CCCCN(C(=O)/C=C/c1ccco1)c1c(N)n(CC(C)C)c(=O)[nH]c1=O", "hERG current change (%, negative = inhibition) at 10uM": 31.1},
      {"smiles": "COC(=O)CC1SC(=O)NC1=Nc1cccc(C)c1", "note": "(stereo not drawn)", "hERG current change (%, negative = inhibition) at 10uM": 14.4},
      {"smiles": "O.O=C(O)c1cc(=O)c2c(Cl)cc(Cl)cc2[nH]1", "hERG current change (%, negative = inhibition) at 10uM": -51.9},
      {"smiles": "CCOC(=O)Cn1c(=O)n(Cc2ccco2)c(=O)c2ccc(C(=O)NC3CCCC3)cc21", "hERG current change (%, negative = inhibition) at 10uM": -18.9},
      {"smiles": "Cc1ccc(-c2nn[nH]n2)cc1", "hERG current change (%, negative = inhibition) at 10uM": 2.07},
      {"smiles": "O=C(c1ccc(COc2ccc(Cl)cc2)cc1)N1CCCCC1", "hERG current change (%, negative = inhibition) at 10uM": -4.5},
      {"smiles": "O=C(Nc1cc(Cl)ccc1Cl)C1CC(=O)N(c2ccccc2)C1", "note": "(stereo not drawn)", "hERG current change (%, negative = inhibition) at 10uM": 5.58},
      {"smiles": "Cc1cc(NC(=O)c2cnn3c(C(F)(F)F)cc(-c4ccccc4)nc23)no1", "hERG current change (%, negative = inhibition) at 10uM": -26.7},
      {"smiles": "O=c1[nH]nc(CNc2cccc(C(F)(F)F)c2)c2ccccc12", "hERG current change (%, negative = inhibition) at 10uM": -4.15},
      {"smiles": "CN1/C(=C\\C(=O)Nc2ccc(F)cc2)C(C)(C)c2ccccc21", "hERG current change (%, negative = inhibition) at 10uM": 8.91},
      {"smiles": "O=C(CCc1nnc(Cc2c[nH]c3ccccc23)o1)NCC1CC12CCCCC2", "note": "(stereo not drawn)", "hERG current change (%, negative = inhibition) at 10uM": -8.61},
      {"smiles": "O=C(Nc1cc(S(=O)(=O)N2CCOCC2)ccc1N1CCCC1)C1COc2ccccc2O1", "note": "(stereo not drawn)", "hERG current change (%, negative = inhibition) at 10uM": -4.53},
      {"smiles": "Cc1cc(C)n(CCC(=O)N2CCCC(N3CCN(c4cccc(Cl)c4)CC3)C2)n1", "note": "(stereo not drawn)", "hERG current change (%, negative = inhibition) at 10uM": -30.9},
      {"smiles": "N#Cc1c(-c2ccccc2Cl)noc1/C=C/Nc1ccc(C(=O)O)cc1", "hERG current change (%, negative = inhibition) at 10uM": 10.2},
      {"smiles": "CCOC(=O)C1=CC[C@H]2c3c(c4ccccc4n3C)C(=O)C1N2C(=O)OC(C)(C)C", "hERG current change (%, negative = inhibition) at 10uM": -13.2},
      {"smiles": "COc1ccc(N2CCN(c3oc(COc4ccc(Cl)cc4Cl)nc3C#N)CC2)cc1", "hERG current change (%, negative = inhibition) at 10uM": 6.84},
      {"smiles": "O=C(Nc1ccccc1C(=O)N/N=C/c1ccco1)c1ccccc1", "hERG current change (%, negative = inhibition) at 10uM": -9.23},
      {"smiles": "Cc1cccn2c(=O)nc(SCC(=O)c3ccccc3)nc12", "hERG current change (%, negative = inhibition) at 10uM": 0.0981},
      {"smiles": "COc1cccc(NC(=O)Cn2c(CCC(=O)O)ccc2-c2ccccc2)c1", "hERG current change (%, negative = inhibition) at 10uM": 15.1},
      {"smiles": "CC1C(=O)Nc2ccccc2N1C(=O)c1c(F)cccc1F", "note": "(stereo not drawn)", "hERG current change (%, negative = inhibition) at 10uM": 7.05},
      {"smiles": "CNS(=O)(=O)c1cccc(C(=O)OCC(=O)NC(C)CCc2ccccc2)c1", "note": "(stereo not drawn)", "hERG current change (%, negative = inhibition) at 10uM": 5.29},
      {"smiles": "CC1(c2ccccc2)CC(C)(C)N2C(=O)Cc3cccc1c32", "note": "(stereo not drawn)", "hERG current change (%, negative = inhibition) at 10uM": -24.3},
      {"smiles": "CCN1CCN(C(=S)NCC(C)C)CC1.O=C(O)C(=O)O", "hERG current change (%, negative = inhibition) at 10uM": 9.32},
      {"smiles": "COc1ccc(/C=C/C(=O)N(C(C)C)C(C)C)cc1Br", "hERG current change (%, negative = inhibition) at 10uM": -4.11},
      {"smiles": "CCCC(=O)NC(Oc1ccc(C(C)=O)cc1)C(Cl)(Cl)Cl", "note": "(stereo not drawn)", "hERG current change (%, negative = inhibition) at 10uM": 22},
      {"smiles": "O=C(NCCC1CCCCN1S(=O)(=O)c1ccccc1)C(=O)NCc1ccco1", "note": "(stereo not drawn)", "hERG current change (%, negative = inhibition) at 10uM": -18.7},
      {"smiles": "CCOC(=O)N1CC(=O)Nc2ccc(Br)cc2C1c1ccccc1", "note": "(stereo not drawn)", "hERG current change (%, negative = inhibition) at 10uM": -24.4},
      {"smiles": "Cc1ccc(N(CC(=O)NC(C)c2ccccc2)S(=O)(=O)c2c(C)n[nH]c2C)cc1", "note": "(stereo not drawn)", "hERG current change (%, negative = inhibition) at 10uM": -8.53},
      {"smiles": "COc1ccc(/C(O)=C2\\C(=O)C(=O)N(c3cc(C)on3)C2c2ccc(OC)c(OC)c2)cc1OC", "note": "(stereo not drawn)", "hERG current change (%, negative = inhibition) at 10uM": 9.15},
      {"smiles": "CCCOC1CCCN(C(=O)c2cc(Cl)c(Cl)cc2C(=O)O)C1", "note": "(stereo not drawn)", "hERG current change (%, negative = inhibition) at 10uM": 13.9},
      {"smiles": "COc1ccc(NC(=O)CCN2CCCCC2)cc1", "hERG current change (%, negative = inhibition) at 10uM": -1.22},
      {"smiles": "O=S(=O)(Nc1ccc(Cl)cc1)c1cccc2nsnc12", "hERG current change (%, negative = inhibition) at 10uM": 7.43},
      {"smiles": "CCn1cc(C(=O)N(C)c2cc(C)ccc2OC)c2cc(OC)c(OC)cc2c1=O", "hERG current change (%, negative = inhibition) at 10uM": 8.29},
      {"smiles": "C/C(=C\\C(=O)N1CCc2ccccc21)C(=O)O", "hERG current change (%, negative = inhibition) at 10uM": 18.5},
      {"smiles": "CC(=O)c1ccc(NC(=O)CSc2nc(N3CCOCC3)nc(N3CCOCC3)n2)cc1", "hERG current change (%, negative = inhibition) at 10uM": -7.67}
    ]}
  ]
}
